Measured values taken from the supplement of paper PMC6206098.
± gives the uncertainty stated by the source. Shown are siRNA guide strands that differ only in the seed, positions 2 to 7.

Experiments:
3LL = assay: cell viability relative to siNT1 control; higher = less toxic; conditions: concentration: 10 nM; 96 h; Mus musculus;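 also: Luminescence-based viability of cells reverse transfected in 384-well plates with lipid-complexed siRNAs built on a non-toxic 19mer backbone whose passenger strand carries 2′-O-methyl groups at positions 1 and 2, triplicates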
HeyA8 = assay: cell viability relative to lipid-only control; HeyA8 human ovarian and H460 human lung cancer; M565 mouse liver and 3LL mouse lung cancer; siNT1 is a non-toxic control siRNA; higher = less toxic; conditions: concentration: 10 nM; 96 h; Homo sapiens
H460 = assay: as above; conditions: concentration: 10 nM; 96 h; Homo sapiens
M565 = assay: as above; conditions: concentration: 10 nM; 96 h; Mus musculus
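For cell viability relative to lipid-only control in this document: reverse lipid transfection in 384-well plates, in triplicate, of duplexes on a non-toxic 19mer backbone with passenger strand 2′-O-methylated at positions 1 and 2, luminescence viability read-out.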

Sequence | cell viability (3LL) | cell viability (HeyA8) | cell viability (H460) | cell viability (M565)
UGACGCCACAUGUAAACCAAA | 21 ± 1.7% | 83.5 ± 12% | 43.6 ± 5.7% | 13.8 ± 2.3%
UGACGCGACAUGUAAACCAAA | 86.1 ± 5.2% | 102 ± 10% | 71.1 ± 13% | 65.1 ± 13%
UGACGCUACAUGUAAACCAAA | 78.3 ± 12% | 95.2 ± 7.4% | 52.9 ± 11% | 80 ± 24%
UGACGGAACAUGUAAACCAAA | 79.4 ± 1.3% | 71.8 ± 3.4% | 48.1 ± 5.2% | 46.5 ± 7.3%
UGACGGCACAUGUAAACCAAA | 27.4 ± 3.2% | 10.4 ± 0.86% | 20.5 ± 1.9% | 16.3 ± 3.9%
UGACGGGACAUGUAAACCAAA | 23.5 ± 2.8% | 46.7 ± 2.2% | 37.2 ± 1.9% | 15.2 ± 1.4%
UGACGGUACAUGUAAACCAAA | 28.2 ± 6% | 27.1 ± 1.6% | 24.9 ± 3.9% | 27.7 ± 7%
UGACGUAACAUGUAAACCAAA | 89.1 ± 4.4% | 102 ± 4.5% | 66.4 ± 4% | 55.9 ± 11%
UGACGUCACAUGUAAACCAAA | 56 ± 8.7% | 95.8 ± 7.9% | 54.3 ± 3.8% | 15.2 ± 4.3%
UGACGUGACAUGUAAACCAAA | 65.8 ± 8.8% | 89.3 ± 2.2% | 60 ± 14% | 20 ± 4.2%
UGACGUUACAUGUAAACCAAA | 65.3 ± 6.4% | 92.5 ± 3.6% | 83.91 ± 0.59% | 30.1 ± 0.83%
UGACUAAACAUGUAAACCAAA | 87.8 ± 9.5% | 90.6 ± 4.9% | 73.2 ± 7% | 74.8 ± 14%
UGACUACACAUGUAAACCAAA | 70.6 ± 27% | 39.1 ± 2.9% | 34.4 ± 4.6% | 19.4 ± 1.5%
UGACUAGACAUGUAAACCAAA | 58.8 ± 9.3% | 53.8 ± 3.6% | 40.4 ± 5.6% | 25.2 ± 5%
UGACUAUACAUGUAAACCAAA | 82.7 ± 13% | 67.8 ± 4% | 56.7 ± 4.7% | 70.6 ± 9.3%
UGACUCAACAUGUAAACCAAA | 48.7 ± 5.7% | 47.7 ± 3.2% | 62.5 ± 5.9% | 18 ± 5.2%
UGACUCCACAUGUAAACCAAA | 2.51 ± 0.7% | 19.9 ± 1.8% | 12.1 ± 1.1% | 4.4 ± 1.2%
UGACUCGACAUGUAAACCAAA | 19 ± 3.1% | 77.9 ± 6.5% | 54 ± 11% | 20.4 ± 2.9%
UGACUCUACAUGUAAACCAAA | 9.83 ± 1.7% | 37.4 ± 4.5% | 41.2 ± 3.9% | 11.3 ± 1.3%
UGACUGAACAUGUAAACCAAA | 50.3 ± 12% | 40 ± 2.3% | 46.4 ± 5% | 58.6 ± 6.7%

Sequence | cell viability (3LL) | cell viability (HeyA8) | cell viability (H460) | cell viability (M565)
UGACUGCACAUGUAAACCAAA | 15.1 ± 1% | 6.86 ± 1.3% | 11.4 ± 0.87% | 22.2 ± 0.61%
UGACUGGACAUGUAAACCAAA | 39.9 ± 2.7% | 24.2 ± 7% | 31.6 ± 3.1% | 25.2 ± 2.3%
UGACUGUACAUGUAAACCAAA | 39 ± 10% | 30.9 ± 0.41% | 21.2 ± 2.9% | 44.3 ± 6.4%
UGACUUAACAUGUAAACCAAA | 91.9 ± 15% | 86.6 ± 5.9% | 64 ± 9.7% | 61.7 ± 16%
UGACUUCACAUGUAAACCAAA | 61.4 ± 15% | 33.5 ± 1.4% | 38.8 ± 4.8% | 75.1 ± 1.5%
UGACUUGACAUGUAAACCAAA | 85 ± 15% | 71.6 ± 9.2% | 63.3 ± 8.9% | 65.1 ± 3.8%
UGACUUUACAUGUAAACCAAA | 76.7 ± 13% | 57 ± 2.8% | 47.8 ± 6.1% | 94.6 ± 8%
UGAGAAAACAUGUAAACCAAA | 87.4 ± 17% | 95.8 ± 12% | 88 ± 4.2% | 52.3 ± 2.3%
UGAGAACACAUGUAAACCAAA | 67.9 ± 12% | 72 ± 4.9% | 38.6 ± 4.5% | 44.6 ± 12%
UGAGAAGACAUGUAAACCAAA | 88 ± 14% | 89.6 ± 4.5% | 70.9 ± 7.7% | 59.8 ± 15%
UGAGAAUACAUGUAAACCAAA | 69.8 ± 16% | 79.1 ± 1.2% | 71.3 ± 6.9% | 46.9 ± 6%
UGAGACAACAUGUAAACCAAA | 90.7 ± 25% | 80.5 ± 7.5% | 41.4 ± 3% | 41.5 ± 3.6%
UGAGACCACAUGUAAACCAAA | 16.2 ± 3.8% | 47.3 ± 5.3% | 27.6 ± 3.2% | 6.8 ± 3.4%
UGAGACGACAUGUAAACCAAA | 72.6 ± 14% | 94.1 ± 7.7% | 59.4 ± 8.8% | 47.4 ± 11%
UGAGACUACAUGUAAACCAAA | 67.9 ± 12% | 10.9 ± 1.2% | 13.7 ± 1.8% | 9.1 ± 2.9%
UGAGAGAACAUGUAAACCAAA | 84.1 ± 15% | 87.9 ± 1.7% | 68.3 ± 9.2% | 15.6 ± 4.5%
UGAGAGCACAUGUAAACCAAA | 19.2 ± 9.9% | 35.4 ± 2.2% | 32.2 ± 6.8% | 4.19 ± 1.2%
UGAGAGGACAUGUAAACCAAA | 31.3 ± 5.2% | 18.7 ± 0.65% | 27.3 ± 2.3% | 4.28 ± 1%
UGAGAGUACAUGUAAACCAAA | 49.5 ± 13% | 40.4 ± 4.5% | 50.4 ± 7.8% | 3.92 ± 0.19%
UGAGAUAACAUGUAAACCAAA | 101 ± 17% | 103 ± 4% | 96.3 ± 9.4% | 32.2 ± 8.3%

Sequence | cell viability (3LL) | cell viability (HeyA8) | cell viability (H460) | cell viability (M565)
UGAGAUCACAUGUAAACCAAA | 32.7 ± 8.4% | 72.3 ± 0.99% | 62.3 ± 4.8% | 18.5 ± 3.6%
UGAGAUGACAUGUAAACCAAA | 83.9 ± 12% | 78.1 ± 4.9% | 69.6 ± 15% | 48.9 ± 7.3%
UGAGAUUACAUGUAAACCAAA | 62.6 ± 13% | 70.3 ± 4.6% | 84.6 ± 13% | 17.7 ± 4.4%
UGAGCAAACAUGUAAACCAAA | 70.5 ± 20% | 84.2 ± 4.1% | 68.6 ± 12% | 19.2 ± 4.2%
UGAGCACACAUGUAAACCAAA | 9.99 ± 3.3% | 69.2 ± 4.9% | 50.7 ± 3.1% | 8.51 ± 1.2%
UGAGCAGACAUGUAAACCAAA | 43.2 ± 9.1% | 41.3 ± 5.1% | 42.7 ± 7.7% | 21.3 ± 4.7%
UGAGCAUACAUGUAAACCAAA | 46.9 ± 8.2% | 61.3 ± 24% | 64.7 ± 6.8% | 19.3 ± 0.59%
UGAGCCAACAUGUAAACCAAA | 63.8 ± 15% | 74.5 ± 4.2% | 63.2 ± 5.2% | 13.4 ± 1.8%
UGAGCCCACAUGUAAACCAAA | 2.27 ± 0.19% | 39.4 ± 1.7% | 20.1 ± 3.8% | 1.97 ± 1.3%
UGAGCCGACAUGUAAACCAAA | 63.5 ± 13% | 81.2 ± 4.6% | 77.2 ± 10% | 16.8 ± 5.2%
UGAGCCUACAUGUAAACCAAA | 10.1 ± 3.1% | 57.1 ± 1.8% | 52.5 ± 6.5% | 4.75 ± 0.97%
UGAGCGAACAUGUAAACCAAA | 86.4 ± 11% | 74.5 ± 1% | 71.3 ± 9.4% | 34.1 ± 4.6%
UGAGCGCACAUGUAAACCAAA | 64 ± 24% | 63.2 ± 4.7% | 58.1 ± 7.2% | 37.4 ± 6.6%
UGAGCGGACAUGUAAACCAAA | 53.5 ± 8.9% | 28.7 ± 11% | 32.3 ± 1.6% | 15.1 ± 4.4%
UGAGCGUACAUGUAAACCAAA | 79.6 ± 17% | 87.4 ± 2.6% | 58.4 ± 8.4% | 29.5 ± 3.5%
UGAGCUAACAUGUAAACCAAA | 82.2 ± 17% | 96.7 ± 8.9% | 66.1 ± 1.5% | 31.3 ± 4.7%
UGAGCUCACAUGUAAACCAAA | 20.1 ± 5.1% | 49.1 ± 1.5% | 45.6 ± 4.2% | 4.16 ± 0.44%
UGAGCUGACAUGUAAACCAAA | 33.6 ± 6.4% | 38.1 ± 1.4% | 49.5 ± 2.3% | 9.92 ± 1.8%
UGAGCUUACAUGUAAACCAAA | 28.5 ± 4.5% | 69.6 ± 6.4% | 57.9 ± 14% | 13.4 ± 3.4%
